Several values for one entry are separate records, joined by “and”; a condition that tells them apart may be missing. Equal values may be shown once.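 Grown in 96-well plates, cells were treated for 48 hours with each compound at five concentrations. Insufficient inhibition: endpoint recorded as highest concentration tested. At the GI50, growth is halved. TGI: total growth inhibition.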
These compounds were tested on NCI-H322M lung (assay: NCI anticancer screen, dose series, 48 h).
Compound `O=C(COc1cccc(/C=C2\COc3ccc(Cl)cc3C2=O)c1)c1ccc(Cl)cc1` has a GI50 of 14.7 µM and a TGI of 30.3 µM.
For `O=C1[C@@H]2C[C@@H](O)CN2C(=O)c2ccccc2N1CCCO`, the TGI was over 100 µM.
Work on `COc1ccc(C(=O)N(C(=S)OCCOc2ccccc2)c2ccccc2)cc1` yielded a TGI of over 100 µM.
`O=C1NC(=O)C(COCc2ccccc2)C2=C1SCCC2` (centres undefined) showed a TGI of over 100 µM.
For `O=c1[nH]c(-c2ccc(-c3nc4cc([N+](=O)[O-])ccc4c(=O)[nH]3)cc2)nc2cc([N+](=O)[O-])ccc12`, the TGI was over 100 µM.
Work on `CCc1nnc(-c2nsc3ccccc23)s1` yielded a TGI of over 100 µM.
Work on `CS/C(C)=N/OC(=O)NCCCCNc1ccc(N=[N+]=[N-])cc1` yielded a TGI of over 100 µM.
With `CC12c3c4cc(Br)cc3Oc3cc(Br)cc(c31)Oc1cc(Br)cc(c12)O4` the TGI was over 100 µM.
In the case of `COc1cccc2c1C(=O)c1ccc3cc(CCl)cc(O)c3c1C2=O`, the TGI is reported as 1.95 µM.
`CN(C(=O)c1ccncc1)c1ccccc1` gave a TGI of over 100 µM.
`Cc1c(Cl)cccc1NC1=C(Cl)C(=O)N(Cc2ccccc2)C1=O` showed a GI50 of 1.22 µM and a TGI of 8.71 µM.
`CN(CCCN(C)CCc1ccc(Cl)c(Cl)c1)CCCN1CCCC1` gave a TGI of 4.21 µM.
In the case of `CN(C)c1ccc(C(=C2C=CC(=[N+](C)C)C=C2)c2ccc(N(C)C)cc2)cc1`, the GI50 is reported as 0.339 µM and the TGI is reported as 1.33 µM and 1.59 µM.
Work on `CC(C)C[C@H](NC(=O)[C@@H](O)[C@H](N)Cc1ccc([N+](=O)[O-])cc1)C(=O)O` yielded a GI50 of over 25 µM and a TGI of over 25 µM.
`O=c1cc(N=Nc2ccc(O)cc2)[nH]c(=O)[nH]1` was tested, and the TGI was over 100 µM.
Work on `COc1ccc(/C=C2\CCC(CN(C)C)C2=O)cc1OC` (centres undefined) yielded a TGI of 31.7 µM.
`C=CCC(OCCOCC)c1cc(OCCOCC)ccc1OC` (centres undefined) gave a TGI of over 100 µM.
In the case of `COc1cc([C@@H]2c3cc4c(cc3[C@@H](OC(=O)c3ccccc3)C3COC(=O)[C@@H]32)OCO4)cc(OC)c1O` (some centres undefined), the TGI is reported as over 100 µM.
`COC(=O)C1CCC(=O)N1C(c1ccccc1)c1cc(OC)c(OC)c(OC)c1` (centres undefined) was tested, and the TGI was over 100 µM.
For `CCCOC(=O)CCn1c(SC)nc2[nH]cc(-c3ccccc3)c2c1=O`, the GI50 was 54.9 µM and the TGI was over 100 µM.
Work on `COc1cc(Oc2nc3c(N)cc(C(F)(F)F)cc3nc2-c2ccccc2)cc(OC)c1OC` yielded a TGI of over 100 µM.
Work on `O=C1OCC/C1=C/c1ccc(N=Nc2c(O)ccc3ccccc23)cc1` yielded a TGI of 69.1 µM.
Compound `CN1CCN(c2cc(-c3cc4ccccc4o3)oc(=O)c2C#N)CC1` has a TGI of over 100 µM.
For `COc1cc2c3c(n(C)c(=O)c2cc1OC)-c1cc2c(cc1/C3=C\C(N)CN)OCO2` (centres undefined), the GI50 was 1.5 µM and the TGI was 8.81 µM.
`COc1cc(C2CC(c3ccc(N(C)C)cc3)=NN2C(C)=O)cc(OC)c1OC` (centres undefined) was tested, and the GI50 was 4.37 µM and the TGI was over 82 µM.
`COC(=O)C1=C(OC(=O)c2ccc(Cl)cc2)C(C(=O)OC)[C@@]2(O)[C@@H](C(=O)OC)C(c3ccccc3Cl)C[C@@H]1[C@@H]2C(=O)OC` (some centres undefined) showed a GI50 of 3.3 µM and a TGI of 26.1 µM.
`Cc1ccc(S(=O)(=O)Nn2c(S)c(C#N)c(-c3ccc([N+](=O)[O-])cc3)c(C#N)c2=O)cc1` was tested, and the TGI was over 100 µM.
`Cc1ccc(Sc2ccc(C)cc2[N+](=O)[O-])c([N+](=O)[O-])c1` showed a TGI of over 100 µM.
For `O=C(Cc1ccccc1)NNc1nc(NNC(=O)c2ccncc2)nc(Nc2cccc(Cl)c2)n1`, the TGI was over 10 µM.
`CCOc1cc2c(cc1O)/C(=N/NS(=O)(=O)c1ccc(C)cc1)C[C@@H]1[C@@H]2CC[C@]2(C)[C@@H](O)CC[C@@H]12` gave a TGI of over 100 µM.
With `NC(CCC(=O)O)(CCC(=O)O)CCC(=O)O` the TGI was over 100 µM.
Work on `CCC1CCc2c(OC)ccc(OCC(=O)O)c2C1=O` (centres undefined) yielded a TGI of over 100 µM.
Compound `O=C1/C(=C/c2ccccc2)CCC/C1=C\c1ccc(O)c(CN2CCCCC2)c1` has a TGI of 18.5 µM.
Work on `C[C@@H](NC1CCC[C@H]1O)c1ccccc1` (some centres undefined) yielded a TGI of over 100 µM.
`Clc1nc(Cl)c(-c2ccccc2)c(Cl)n1` gave a TGI of 26.3 µM.
`O=C(Nc1nc(=S)c2c(ncn2CCO)[nH]1)c1ccccc1` was tested, and the TGI was over 100 µM.
`Nc1c(C(=O)Nc2ccccc2)sc2nc3c(cc12)CN(Cc1ccccc1)CC3` showed a GI50 of over 100 µM and a TGI of over 100 µM.
With `CCCCOCCOC1=CC(=O)c2c(O)ccc(O)c2C1=O` the TGI was 3.04 µM.
With `CCOc1ncn(-c2ccc(NC(=S)NC34CC5CC(CC(C5)C3)C4)cc2)n1` the TGI was over 100 µM.
Compound `O=C(O)CC1(CC(=O)O)Nc2ccccc2SC1=O` has a TGI of over 100 µM.
Compound `C=CCCCC1CCCNC1=S` (centres undefined) has a TGI of over 100 µM.
In the case of `O=C1/C(=C/c2c(Cl)[nH]c3ccccc23)c2ccccc2N1c1ccccc1`, the TGI is reported as 43 µM.
Work on `CCOC(=O)C1=C(Nc2cccc3ccccc23)OC/C1=N\NC(=O)c1ccccc1O` yielded a TGI of over 100 µM.
With `c1ccc2cc(CNCCOCCOCCNCc3ccc4ccccc4c3)ccc2c1` the TGI was 3.38 µM.
With `Cc1ccc(S(=O)(=O)NNC2(NS(=O)(=O)c3ccc(Cl)cc3)C(Cl)=C(Cl)C(=O)c3ccccc32)cc1` (centres undefined) the TGI was 30.4 µM.
`CC(C)C1COC(c2cccc(C3=N[C@@H](C(C)C)CO3)n2)=N1` (some centres undefined) was tested, and the TGI was over 100 µM.
Work on `CC(C)(C#N)c1cc(C(=O)Nc2cc(Nc3ncccc3-c3ncnc4nc[nH]c34)ccc2F)cc(C(F)(F)F)c1` yielded a TGI of over 10 µM.
In the case of `CC(=O)NC1CC2Oc3ccc(C)cc3C(C)(O2)C1O` (centres undefined), the TGI is reported as over 100 µM.
For `COc1cc(C2C3=C(COC3=O)Nc3cc4c(cc32)CCC4)cc2c1OCO2` (centres undefined), the GI50 was 3.37 µM and the TGI was 41 µM.

— PubChem BioAssay (NCI)
